# Measured values reported in ChEMBL document CHEMBL1201862, “PubChem BioAssay data set” (2004).
# System: NCI-H322M
# Test: NCI tumour cell line growth inhibition, 48 h
row,Compound,GI50
1,O=C1N=C(Nc2ccccc2Cl)N/C1=C\c1ccc(Cl)cc1Cl,inactive: > 100 µM
2,Oc1c(C(O)(c2ccccc2)c2ccc3ccccc3c2O)ccc2ccccc12,inactive: 14.2 µM
3,CC(=O)c1ccc(O)c(CN(C2CCCCC2)C2CCCCC2)c1O,inactive: 88.5 µM
4,O=C(O)c1cccc2cccc(-c3cccc4cccc(C(=O)O)c34)c12,inactive: > 100 µM
5,COc1cc(C2c3cc4c(cc3OC(Nc3ccc(C(=O)O)cc3)C2C)OCO4)cc(OC)c1OC (stereo not given),active: 0.457 µM
6,CSCCC(C(=O)O)N(CC1(O)OCC(O)C(O)C1O)N=O (stereo not given),inactive: > 100 µM
7,CC1(C)CCC2=C(O1)/C(=N\Nc1ccc(F)cc1)c1ccccc1C2=O,inactive: 33.3 µM
8,CCOC(=O)c1csc(NC(=O)CCCC#N)n1,inactive: > 100 µM
9,C/C=C(\C)c1cc(=O)c2c(C)cc3c(c2o1)C(=O)c1c(O)c(C2CC(C)(N(C)C)C(OC(C)=O)C(C)O2)cc(C2CC(N(C)C)C(O)C(C)O2)c1C3=O (stereo not given),inactive: 1.36 µM
10,Cc1c(/N=C/C=C/c2ccccc2)c(=O)n(-c2ccccc2)n1C,inactive: > 100 µM
11,O=C1N[C@@H](c2c[nH]c3ccc(Br)cc23)C(=O)N[C@H]1c1c[nH]c2ccc(Br)cc12,inactive: 11.7 µM
12,O=[N+]([O-])c1cccc(C2SCc3nc4ccccc4n32)c1 (stereo not given),inactive: > 100 µM
13,C=C(C)c1cc(C(C)(C)C)cc(C(=C)C)c1S(C)(=O)=O,inactive: > 100 µM
14,O=C(NCCNCCNCCNC(=O)c1cc(-c2ccccc2)nc2ccccc12)c1cc(-c2ccccc2)nc2ccccc12,inactive: 4.46 µM
15,CN(C)c1cccc2c(S(=O)(=O)NCCCNCCN)cccc12,inactive: 89.3 µM
16,CCCCOCN/C(N)=N/C#N,inactive: > 100 µM
17,Cc1cc(C)c(S(=O)(=O)ONC(=O)OC(C)(C)C)c(C)c1,inactive: > 100 µM
18,Oc1ccc2c3c1OC1C(=NN=C4CCC5(O)C6Cc7ccc(O)c8c7C5(CCN6CC5CC5)C4O8)CCC4(O)C(C2)N(CC2CC2)CCC314 (stereo not given),inactive: 41.2 µM
19,Cc1cc(C)cc(Nc2nnc3n2S(=O)(=O)c2cc(C)c(Cl)cc2S3)c1,inactive: 17.8 µM
20,CC(SC(=S)N(C)C)C(=O)Nc1nnc(-c2ccc(Cl)cc2)o1 (stereo not given),inactive: 40.8 µM
21,C=C1CCC2CC1C(C(=O)c1c[nH]c3ccccc13)=NC2(C)C (stereo not given),inactive: > 100 µM
22,CCC1(COC(NC(=O)c2ccccc2)(C(F)(F)F)C(F)(F)F)COC1,inactive: > 100 µM
23,CC1=NN(C(=O)CSc2nnc(SCC(=O)N3N=C(C)CC3(O)c3ccccc3)s2)C(O)(c2ccccc2)C1 (stereo not given),inactive: 21.3 µM

row,Compound,GI50
1,CO[C@]12CC(=O)C3(C(C[C@H]4CC5CC[C@H]6C[C@@H](OC(C)=O)CC[C@]6(OC(C)=O)C5C[C@@]43C)C1)C1C[C@H]3[C@@H]4CC[C@H]5C[C@@H](OC(C)=O)CC[C@]5(OC(C)=O)[C@H]4CC[C@]3(C)C12 (stereo not given in full),inactive: > 100 µM
2,COc1ccc(NC(=O)/C(Cc2nc3ccccc3nc2O)=N\O)c(OC)c1,inactive: > 100 µM
3,CCOC(=O)c1sc2[n+](c1C)C(=O)/C(=C/c1ccccc1Cl)S2,inactive: 2.86 µM
4,O=[N+]([O-])c1c(F)c(F)c2c(c1F)Nc1ccccc1S2,inactive: 4.09 µM
5,C=CCn1c2ccccc2c2c(C)c3cnccc3c(C)c21,inactive: 10.6 µM
6,Cn1c2ccccc2c2c(=O)[nH]c(=O)[nH]c21,inactive: > 100 µM
7,COC(=O)CCCC(=O)/C(=N\Nc1ccc(Cl)cc1)Nc1c(Cl)cccc1Cl,inactive: 59.6 µM
8,CCOC(=O)C1=C(C)N(NC(=O)Nc2ccccc2)C2(N)N(NC(=O)Nc3ccccc3)C(C)=C(C(=O)OCC)C12C#N (stereo not given),inactive: 22.3 µM
9,CCOC(=O)c1c(C)n(Cc2ccccc2)c2c1cc(O)c1[nH]c3c(c12)CCCC3,inactive: 15 µM
10,O=C1CN2C(Cl)(Cl)C2(c2ccccc2)c2cc(Cl)ccc2N1CC1CC1 (stereo not given),inactive: 19.2 µM
11,CC(Oc1ccc2c(-c3ccc(Cl)cc3)cc(=O)oc2c1)C(=O)O (stereo not given),inactive: > 100 µM
12,C[C@H]1CC[C@H](NC(=O)N(CCCl)N=O)CC1,inactive: 81.1 µM
13,Cc1nc2cccc(F)c2c(=O)n1-c1nnc(C2CC2)s1,inactive: > 10 µM
14,CC1(C)CCOC(Sc2ccccc2)C1 (stereo not given),inactive: > 100 µM
15,CC1(C)OC2[C@@H](CO[C@@]3([C@@H](O)CCO)OC(C)(C)O[C@@H]23)O1 (stereo not given in full),inactive: > 100 µM
16,CC(=O)O[C@H]1CC[C@@]2(C)C(=CC[C@H]3[C@@H]4C/C(=C\c5ccncc5)[C@H](OC(C)=O)[C@@]4(C)CC[C@@H]32)C1,inactive: 13.2 µM
17,CCOC(=O)C1=C(NC(C)(C)C)OCC1=O,inactive: > 100 µM
18,C=C(OC1C(C)=C2C(C1OC(=O)CCCCCCC)C(C)(OC(C)=O)CC(OC(=O)CCC)C1(O)C2OC(=O)C1(C)O)/C(C)=C/C (stereo not given),active: 0.0125 µM
19,COC12CCC(=O)C=C1c1ccccc1N2C(C)=O (stereo not given),inactive: > 100 µM
20,O=C(Nc1ccccc1)c1ccc(Cl)c([N+](=O)[O-])c1,inactive: 17.8 µM
21,CCCCCCCCCCCCCCCCCCOC(COP(=O)(O)OCC1OC(n2cc(F)c(=O)[nH]c2=O)CC1O)COP(=O)(O)OCC1OC(n2ccc(N)nc2=O)C(O)C1O (stereo not given),inactive: 36 µM
22,O=P1(c2ccccc2)c2ccccc2CCc2ccccc21,inactive: 53.2 µM
23,COC1CC(C)([N+](=O)[O-])C(O)C(C)O1 (stereo not given),inactive: > 100 µM

row,Compound,GI50
1,Cc1c(-c2ccccc2)c(C#N)c2nnn(-c3ccc([N+](=O)[O-])cc3)c(=O)n12,inactive: 22.8 µM
2,COc1ccc(/C(=N\Nc2ccccn2)c2ccccn2)cc1,active: < 0.0228 µM
3,Cc1cc(C)c2c(=O)n(CN3CCC(C#N)(c4ccccc4)CC3)sc2n1,inactive: > 100 µM
4,CC(NC1=NCCO1)c1ccccc1Cl (stereo not given),inactive: > 100 µM
5,OC(c1cccs1)c1cc2ccccc2s1 (stereo not given),inactive: > 10 µM
6,CC(=O)c1ccc2c(c1)N(CCCN1CCN(CCO)CC1)c1ccccc1C2,inactive: 17.8 µM
7,COC[C@@H](/N=C/c1ccc([N+](=O)[O-])cc1)C(C)C,inactive: > 100 µM
8,C/C(O[Si](C(C)C)(C(C)C)C(C)C)=C(\C)C(=O)N(C)c1ccccc1Cl,inactive: > 100 µM
9,Cc1cc(=O)nc(S(=O)(=O)NC(=S)Nc2ccc(Br)cc2)[nH]1,inactive: > 100 µM
10,Cc1c(C(=O)C/C(=N/NC(=O)c2ccccc2O)C(=O)Nc2ccccc2C(C)C)[n+]([O-])c2ccccc2[n+]1[O-],inactive: 40.6 µM
11,O=c1[nH]nc(-c2ccccc2)n1/N=C/c1cccs1,inactive: > 100 µM
12,COc1ccccc1NC(=O)NS(=O)(=O)c1ccccc1,inactive: > 100 µM
13,c1cc(-c2cnc(-c3ccc4c(c3)CCCO4)o2)ccn1,inactive: 19 µM
14,C=CC1(CBr)CCC(C(C)(C)Br)O1 (stereo not given),inactive: 18.6 µM
15,O=C(CCCCCCCCC(=O)NN1C(=O)/C(=C\c2ccc(O)c(O)c2)SC1c1ccc(Cl)cc1)NN1C(=O)/C(=C\c2ccc(O)c(O)c2)SC1c1ccc(Cl)cc1 (stereo not given),inactive: 10.5 µM
16,CC(NC(=O)OCc1ccccc1)NC(=O)OC(C)(C)C (stereo not given),inactive: > 100 µM
17,CC1(C)C(=O)N(O)C(C)(C)N1O,inactive: > 10 µM
18,NC(=O)CN1CC(C2=C(O)CN(CC(N)=O)C2=O)=CC1=O,inactive: > 100 µM
19,O=S(=O)(c1ccccc1)n1c2cc3cccnc3nc2c2cccnc21,inactive: > 100 µM
20,CN(C(=O)[C@H](NC(=O)OCc1ccccc1)c1ccccc1)C1CCCCC1N1CCCC1 (stereo not given in full),inactive: > 100 µM
21,CC(C)N(C(=O)C12C3C4C1C1C2C3C41C(=O)C(C)(C)C)C(C)C (stereo not given),inactive: > 100 µM
22,Cc1cn(S(=O)(=O)c2ccccc2)c2c(OCc3ccccc3)cc(NS(C)(=O)=O)cc12,inactive: 26.5 µM
23,O=C(O)CCCSC(=O)Nc1ccc(/N=N/c2ccccc2)cc1,inactive: > 100 µM

row,Compound,GI50
1,CSc1[nH]nc(N)c1C(=O)Nc1ccccc1,inactive: > 100 µM
2,Nc1c(Br)cc(-c2cc(Br)c(N)c(Br)c2)cc1Br,inactive: > 100 µM
3,N#CCCN(CCC#N)c1ccc(/C=C2\N=C(c3ccccc3)N(c3ccccn3)C2=O)cc1,inactive: > 100 µM
4,Cc1ccc(S(=O)(=O)NC(=O)NNc2ccc(F)cc2)cc1,inactive: > 100 µM
5,COC(=O)c1ccc(OCc2ccc3nc(-c4ccccc4)c(Cl)nc3c2)cc1,inactive: > 100 µM
6,COc1ccc(N2C(=O)C3c4[nH]c5ccccc5c4C4CCCCCCCCCCC4C3C2=O)cc1 (stereo not given),inactive: 10.3 µM
7,C#CCn1c(=O)ccn(/C(=C/C(=O)OCC)C(=O)OCC)c1=O,inactive: 36.6 µM
8,c1cnc2nc3n(c2c1)CSC3,inactive: > 100 µM
9,Cc1cc2c(cc1C)C(=O)c1ncccc1C2=O,inactive: 21.7 µM
10,CC(C)(OCc1ccccc1)c1ccccc1P(c1ccccc1)c1ccccc1,inactive: 48.9 µM
11,COC(=O)C1=Cc2c(OC)cc(OC)c(OC)c2[C@H](c2cc(OC)c(OC)cc2OC)C1C(=O)OC (stereo not given in full),inactive: > 100 µM
12,CC(C)(C)C1CCC(=O)C(C(O)CC2CC(=O)N(c3ccccc3)C(=O)C2)C1 (stereo not given),inactive: > 100 µM
13,CC(C)NC(=O)OCc1c(COC(=O)NC(C)C)c(-c2ccc(Cl)c(Cl)c2)n2c1CCC2,inactive: 51.5 µM
14,Cc1c(O)oc2ccccc2c1=O,inactive: > 100 µM
15,CC1=NN(C(=O)c2ccccc2O)C(=O)/C1=C/c1ccco1,inactive: 7.66 µM
16,CCCN(CCC)C(=O)Cc1c2n(c3ccccc13)CCCc1ccccc1-2,inactive: 15.1 µM
17,C[n+]1ccccc1/C1=c2\cc/c([nH]2)=C(\c2cccc[n+]2C)C2=N/C(=C(/c3cccc[n+]3C)C3C=CC(N3)/C(c3cccc[n+]3C)=C3/C=CC1=N3)C=C2,inactive: 94.6 µM
18,CCc1nnc(-c2nsc3ccccc23)s1,inactive: > 100 µM
19,O=C1C(SCCO)=C(SCCO)C(=O)c2ccccc21,inactive: 1.63 µM
20,COc1ccc2c(c1[N+](=O)[O-])CC[C@@H]1[C@@H]2CC[C@]2(C)C(=O)CC[C@@H]12,inactive: > 25 µM
21,CC[C@@]1(O)C(=O)OCc2c1cc1n(c2=O)Cc2cc3c(OC)cccc3nc2-1,active: 0.794 µM

#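 Dose response: 5 concentrations. Exposure: 48 h. Format: 96-well plates. Endpoint: linear interpolation; highest concentration if not reached. At the GI50, growth is halved.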 Active and inactive are the calls of the source. Rule as the data show it: active = GI50 up to about 1.1 µM and inactive = higher.
